From PubChem BioAssay AID463173 (ICCB-Longwood Screening Facility, Harvard Medical School, 2010)
Several values for one entry are separate records, joined by “and”; a condition that tells them apart may be missing. Equal values may be shown once. Among all 52,000 compounds or so, about 1,700 (3.3%) were called active. Cut-off read from the data, not from the text of the source: active = survival mostly below about 52% (no sharp cut-off); inactive = mostly above about 56%. The list shows a part of the results. More than one record can exist for a structure, and the calls need not agree.

tested on: Wild type; assay: S. aureus survival, RN4220 and DeltatarO strains – OD600, teichoic acid synthesis inhibitors, primary screen (AID 463173); conditions: S. aureus RN4220 wild type/DeltatarO growth, OD600, 18 h, stronger effect = lower value, screened at 18.75 µg/mL (by protocol)

SMILES | survival
COc1ccc(N2CC(NC(=O)c3ccc(S(=O)(=O)N4CCCCC4)cc3)CC2=O)cc1 (stereo unspecified) | inactive: 77%
COCCNc1nc(NCc2cccc(Cl)c2)c2cnn(C)c2n1 | inactive: 73%
CCc1cccc(C)c1NC(=O)Cn1nc(C)c2nn(-c3ccc(Cl)cc3)c(C)c2c1=O | inactive: 130%
COc1ccc(/C=C/C(=O)Nc2ccc3nc(N4CCC(C)CC4)cc(C)c3c2)cc1 | inactive: 68%
CCC1Oc2ccc(Cl)cc2N(CC(=O)NCCc2ccc(Cl)cc2)C1=O (stereo unspecified) | inactive: 78%
CCCN1Cc2cccc(C(=O)Nc3cccc(C(=O)OCC)c3)c2C1=O | inactive: 85%
CCCCS(=O)Cc1ccccc1 (stereo unspecified) | inactive: 102%
COc1ccccc1C(=O)Nc1ccc2oc(-c3cccc4c(Br)cccc34)nc2c1 | inactive: 57%
CCN(c1ccccc1)S(=O)(=O)c1c(-c2ccc(C)cc2)csc1C(=O)OC | inactive: 120%
COc1ccc2c(c1)cc1c(=O)n(CC(=O)NC3CC3)nc(C)n12 | inactive: 76%
N#C/C(=C\Nc1ccc2c(c1)OCCO2)c1nc2ccccc2[nH]1 | inactive: 125%
O=C(Cc1csc2nc(-c3ccc(F)cc3)cn12)NCc1ccccc1 | inactive: 70%
O=[N+]([O-])c1cc(-c2nc(-c3ccccc3)no2)ccc1NC1CCCCC1 | inactive: 85%
CS(=O)(=O)N1CCNCC1 | inactive: 92%
COc1ccc(C2c3cc(OC)c(OC)cc3CC(=O)N2c2ccc(C)c(F)c2)cc1 (stereo unspecified) | inactive: 79%
COc1ccccc1CNC(=O)CCn1c(=O)c2cccn2c2cccnc21 | inactive: 93%
C=Cc1ccc(Cn2c(C)c(CNCc3ccccc3C)c(C(=O)O)c2C)cc1 | inactive: 132%
Cc1ccc(-c2nnc(Nc3ccc(C(=O)N(C)C)cc3)c3ccccc23)cc1S(=O)(=O)N(C)C | inactive: 77%
O=C1OC(c2ccccc2)=C/C1=C/N1CCOCC1 | inactive: 116%

SMILES | survival
O=C(Nc1nnc(S(=O)(=O)N2CCCCC2)s1)c1ccccc1Br | inactive: 60%
Cc1ccc(NC(=O)c2ccc3c(O)c(S(=O)(=O)c4ccccc4)c(=O)[nH]c3c2)cc1Cl | inactive: 100%
CCN(C(=O)CN1C(=O)COc2ccc(S(=O)(=O)N3CCOCC3)cc21)c1ccc(OC)cc1 | inactive: 97%
O=C(COc1ccc(Cl)cc1)OCc1cc(=O)n2nc(C3CC3)sc2n1 | inactive: 84%
CC(C)(C)CC(=O)NCC(c1ccc2c(c1)OCO2)N1CCOCC1 (stereo unspecified) | inactive: 73%
O=C(Nc1cccc(F)c1)c1ccc2c(c1)N(Cc1ccccc1)C(=O)c1ccccc1S2(=O)=O | inactive: 103%
COc1ccc(-c2nc3ccccc3s2)cc1NC(=O)c1ccc(F)cc1 | inactive: 143%
Cc1ccc(OCC(=O)Nc2ccccc2OCc2cc(=O)n3ccccc3n2)cc1C | inactive: 129%
COc1ccc(C(=O)NCC(c2ccc(N(C)C)cc2)N2CCc3ccccc32)cc1OC (stereo unspecified) | inactive: 75%
COC(=O)c1ccccc1NC(=O)C1CCN(C(=O)N2CC(C)Oc3ccccc32)CC1 (stereo unspecified) | inactive: 75%
Cc1nn2c(=O)cc(COC(=O)c3cccc(NC(=O)c4ccc(F)cc4)c3)nc2s1 | inactive: 71%
COc1ccc(N2CCN(C(=O)c3ccccc3N(C)S(C)(=O)=O)CC2)cc1 | inactive: 94%
Cc1ccc(Cl)cc1NC(=O)Cn1c(=O)n(C(C)C)c(=O)c2oc3ccccc3c21 | inactive: 83%
Cc1cccc(C(C)C)c1NC(=O)c1ccc2c(c1)CCN2S(C)(=O)=O | inactive: 97%
Cc1cccc(Nc2nnc(-c3ccc(C)c(S(=O)(=O)N4CCN(C)CC4)c3)c3ccccc23)c1 | inactive: 147%
Cc1ccc(-n2nc(-c3ccccc3)c3cnc4cc5c(cc4c32)OCO5)cc1C | inactive: 110%
CCn1c(CN2CCC(C)CC2)nc2cc(NC(=O)c3ccc([N+](=O)[O-])cc3)ccc21 | inactive: 84%
CC(C)CCNC(=O)C(=O)Nc1c2c(nn1-c1ccc(Cl)cc1)CSC2 | inactive: 82%
CC(=O)Nc1cccc(NC(=O)CSc2ccc(-c3sc(-c4ccccc4)nc3C)nn2)c1 | active: 17%

SMILES | survival
O=C(O)CCc1ccc(-c2ccccc2)n1-c1ccc(C(=O)O)cc1 | inactive: 131%
COc1cccc(NC(=O)c2oc3ccc(S(=O)(=O)N4CCCCCC4)cc3c2C)c1 | inactive: 80%
CCOc1ccc(S(=O)(=O)N2CCC(c3ccncc3)CC2)cc1 | inactive: 159%
Cc1ccc(N2C(=O)CC(NCC(=O)O)C2=O)c(C)c1 (stereo unspecified) | inactive: 115%
COc1ccc(-c2cc(C(=O)NCCc3ccc(OC)c(OC)c3)c3c(-c4ccc(F)cc4)[nH]nc3n2)cc1 | inactive: 97%
COc1cccc(NC(=O)CN(c2cccc(OC)c2)S(C)(=O)=O)c1 | inactive: 111%
CCOC(=O)c1ccc(NC(=O)Cn2c3ncccc3c(=O)n2-c2ccc(C)c(C)c2)cc1 | inactive: 73%
Cc1cc(C)n(-c2nc(C)c(C)c(=O)n2CC(=O)Nc2cccc([N+](=O)[O-])c2)n1 | inactive: 64%
CCOC(=O)C(C)Sc1nc(-c2ccccc2)ccc1C#N (stereo unspecified) | inactive: 107% and active: 0%
CCC(C)NC(=O)c1c(C)oc2nc(C)nc(N3CCOCC3)c12 (stereo unspecified) | inactive: 88%
Cc1ccc(NC(=O)c2ccc3snnc3c2)cc1C | inactive: 97%
COC(=O)c1ccccc1NC(=O)c1nn(-c2ccc(OC)cc2)c(=O)c2c1c1ccccc1n2C | inactive: 78%
CCC(CC)C(=O)N1CCN(Cc2ccccc2)CC1 | inactive: 108%
COc1cccc(NC(=O)C2CCN(S(=O)(=O)c3ccc4[nH]c5c(c4c3)CCCCC5)CC2)c1 | inactive: 84%
CCN(CC)C(=O)Cn1c(=O)n(CCc2ccccc2)c(=O)c2ccccc21 | inactive: 90%
COc1cccc(N2CCN(c3ncnc4c3c(-c3ccccc3)cn4-c3cccc(C(F)(F)F)c3)CC2)c1 | inactive: 82%
CCCNC(=O)N1[C@H](c2cccs2)[C@@H](C)C(=O)[C@@H](C)[C@@H]1c1cccs1 | inactive: 107%
CCCN1C2CCCC1CC(NC(=O)Nc1ccccc1C(F)(F)F)C2 (stereo unspecified) | inactive: 98%
